System: voltage gated Na+ channels
Assay: Neuronal Na+ currents after cap-ET and/or QX-314 loading, whole-cell recording
Conditions: 10 μM PAO + 10 or 50 μM cap-ET 15 min, then 5 mM QX-314 15 min

COc1cc(CNC(=O)CCCC/C=C/C(C)C)ccc1OCC[N+](C)(C)C [cap-ET, capsaicin O-ethyl (trimethyl-ammonium) acetate]
voltage-gated Na+ currents after QX-314 in PAO-sensitized neurons: effective reduction of voltage-gated Na+ currents

From patent US20130102680A1, “METHODS FOR SELECTIVE SILENCING OF SENSORY NEURONS” (CORNELL UNIVERSITY, priority 2011, published 2013)
